Measurements: the supplement of paper PMC4604168 (melanoma cell lines)
Some of the results follow. Repeats are few or missing, and single values can be far off.

Columns and labels:
Experiment in all cases: cell count relative to DMSO control; melanoma cells; higher = more viable cells
Details in all cases: library dose: standard library concentration; 72 h
G361 = tested on: G361
IPC-298 = tested on: IPC-298
IST-MEL1 = tested on: IST-MEL1
LB2518-MEL = tested on: LB2518-MEL
LOXIMVI = tested on: LOXIMVI
MEL-HO = tested on: MEL-HO
MZ2-MEL = tested on: MZ2-MEL
MeWo = tested on: MeWo
RPMI7951 = tested on: RPMI7951
RVH-421 = tested on: RVH-421
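Further: cells treated in 1,536-well plates, then fixed and DAPI-stained, with nuclei counted from automated high-throughput microscope images.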

| Compound | cell count (G361) [%] | cell count (IPC-298) [%] | cell count (IST-MEL1) [%] | cell count (LB2518-MEL) [%] | cell count (LOXIMVI) [%] | cell count (MEL-HO) [%] | cell count (MZ2-MEL) [%] | cell count (MeWo) [%] | cell count (RPMI7951) [%] | cell count (RVH-421) [%] |
| --- | --- | --- | --- | --- | --- | --- | --- | --- | --- | --- |
| CC1(C)NC(=O)N(c2ccc([N+](=O)[O-])c(C(F)(F)F)c2)C1=O [nilutamide] + COc1cc2c(Oc3ccc4[nH]c(C)cc4c3F)ncnc2cc1OCCCN1CCCC1 [cediranib] (first compound 5 µM, partner dose 2 µM) | 92.2 | 104 | 104 | 93.4 | 67.1 | 93.6 | 105 | 77.7 | 74.9 | 94.5 |
| COc1cc(Nc2ncc(F)c(Nc3ccc4c(n3)NC(=O)C(C)(C)O4)n2)cc(OC)c1OC [Tamatinib] + CCc1ccc(CCOc2ccc(CC3SC(=O)NC3=O)cc2)nc1 [pioglitazone] (first compound 2 µM, partner dose 10 µM) | 80.2 | 70.6 | 77.9 | 80.8 | 35.9 | 67.3 | 69.7 | 79.4 | 29.7 | 87.2 |
| Cn1cncc1[C@@](N)(c1ccc(Cl)cc1)c1ccc2c(c1)c(-c1cccc(Cl)c1)cc(=O)n2C [tipifarnib] + CCCCCCCCCCCC1=C(O)C(=O)C=C(O)C1=O [Embelin] (first compound 0.05 µM, partner dose 6 µM) | 85.6 | 78.8 | 69.9 | 80.8 | 104 | 82.9 | 86.1 | 88.3 | 75.9 | 71.5 |
| C[C@@H]1CCN(C(=O)CC#N)C[C@@H]1N(C)c1ncnc2[nH]ccc12 + CCc1ccc(CCOc2ccc(CC3SC(=O)NC3=O)cc2)nc1 [pioglitazone] (first compound 5 µM, partner dose 10 µM) | 93 | 92.9 | 101 | 97.9 | 203 | 97.4 | 105 | 83.1 | 133 | 127 |
| O=c1[nH]nc(Sc2ncc([N+](=O)[O-])s2)n1-c1ccc2c(c1)OCCO2 + CO[C@H]1C[C@@H]2CC[C@@H](C)[C@@](O)(O2)C(=O)C(=O)N2CCCC[C@H]2C(=O)O[C@H]([C@H](C)C[C@@H]2CC[C@@H](OCCO)[C@H](OC)C2)CC(=O)[C@H](C)/C=C(\C)[C@@H](O)[C@@H](OC)C(=O)[C@H](C)C[C@H](C)/C=C/C=C/C=C/1C [everolimus] (first compound 1 µM, partner dose 0.1 µM) | 53.5 | 78.6 | 77.5 | 70 | 44.7 | 59.2 | 64.9 | 62.8 | 51.5 | 63.7 |
| O=c1[nH]nc(Sc2ncc([N+](=O)[O-])s2)n1-c1ccc2c(c1)OCCO2 + O=C(CCCCCCC(=O)Nc1ccccc1)NO [vorinostat] (first compound 1 µM, partner dose 0.4 µM) | 70 | 102 | 110 | 86.8 | 57.7 | 94.8 | 113 | 87.4 | 65.1 | 99.2 |
| O=c1[nH]nc(Sc2ncc([N+](=O)[O-])s2)n1-c1ccc2c(c1)OCCO2 + O=c1cc(-c2cccc3c2Sc2ccccc2S3)oc(N2CCOCC2)c1 [KU55933] (first compound 1 µM, partner dose 5 µM) | 76.7 | 90.5 | 91.3 | 96.1 | 83.5 | 79.3 | 119 | 99 | 62.5 | 106 |
| C[C@@H]1CCN(C(=O)CC#N)C[C@@H]1N(C)c1ncnc2[nH]ccc12 + Cn1cc(/C=C2\C(=O)Nc3cccnc32)c2ccccc21 [GW441756] (first compound 5 µM, partner dose 2 µM) | 89.8 | 99.8 | 102 | 92.1 | 102 | 107 | 105 | 108 | 77 | 117 |
| CC1(C)NC(=O)N(c2ccc([N+](=O)[O-])c(C(F)(F)F)c2)C1=O [nilutamide] + C=CCn1c(=O)c2cnc(Nc3ccc(N4CCN(C)CC4)cc3)nc2n1-c1cccc(C(C)(C)O)n1 [MK1775] (first compound 5 µM, partner dose 0.1 µM) | 65.8 | 79.4 | 85.8 | 70 | 81.4 | 97.2 | 112 | 78.6 | 104 | 83.6 |
| O=c1[nH]nc(Sc2ncc([N+](=O)[O-])s2)n1-c1ccc2c(c1)OCCO2 + Cc1cc(Nc2cc(N3CCN(C)CC3)nc(/C=C/c3ccccc3)n2)n[nH]1 [ENMD2076] (first compound 1 µM, partner dose 0.2 µM) | 89.2 | 93.8 | 93.9 | 78.3 | 90.4 | 98.9 | 92.2 | 95.1 | 78.5 | 88.7 |
| COc1cc(Nc2ncc(F)c(Nc3ccc4c(n3)NC(=O)C(C)(C)O4)n2)cc(OC)c1OC [Tamatinib] + COc1cc2ncnc(Nc3ccc(Oc4ccccc4)cc3)c2cc1OC [SrcI1] (first compound 2 µM, partner dose 10 µM) | 44.3 | 69.5 | 83.8 | 85.8 | 22.3 | 70.2 | 51 | 63 | 18.5 | 101 |
| COc1cc(Nc2ncc(F)c(Nc3ccc4c(n3)NC(=O)C(C)(C)O4)n2)cc(OC)c1OC [Tamatinib] + COc1ccc2c(c1)CCC1C2CCC2(C)C(NCCCCCCN3C(=O)C=CC3=O)CCC12 [U73122] (first compound 2 µM, partner dose 2 µM) | 67.9 | 78.5 | 91.8 | 91.4 | 48.9 | 86.5 | 77.8 | 57.7 | 28.3 | 77 |
| Cn1cncc1[C@@](N)(c1ccc(Cl)cc1)c1ccc2c(c1)c(-c1cccc(Cl)c1)cc(=O)n2C [tipifarnib] + COc1ccc2c(c1)CCC1C2CCC2(C)C(NCCCCCCN3C(=O)C=CC3=O)CCC12 [U73122] (first compound 0.05 µM, partner dose 2 µM) | 70.9 | 84.8 | 80 | 78.5 | 86.3 | 91.6 | 90.9 | 67.1 | 15.8 | 90.2 |
| O=C(Nc1cccc(Cl)c1)Nc1ncc(CCNc2ncnc3ccsc23)s1 + COc1ccc(-c2ccc3c(N4CCOCC4)nc(N4C[C@@H](C)O[C@@H](C)C4)nc3n2)cc1CO [KU0063794] (first compound 0.004 µM, partner dose 0.1 µM) | 74.8 | 74.4 | 66.2 | 78.5 | 77.6 | 61.6 | 63.2 | 66.8 | 51.4 | 69.6 |
| O=c1[nH]nc(Sc2ncc([N+](=O)[O-])s2)n1-c1ccc2c(c1)OCCO2 + CN(c1ncccc1CNc1nc(Nc2ccc3c(c2)CC(=O)N3)ncc1C(F)(F)F)S(C)(=O)=O [PF562271] (first compound 1 µM, partner dose 0.4 µM) | 80.7 | 97.9 | 84.2 | 93 | 112 | 88.4 | 75.9 | 114 | 49.4 | 80.3 |
| O=c1[nH]nc(Sc2ncc([N+](=O)[O-])s2)n1-c1ccc2c(c1)OCCO2 + OCCn1cc(-c2cnc3nnn(Cc4ccc5ncccc5c4)c3n2)cn1 [PF04217903] (first compound 1 µM, partner dose 5 µM) | 75.7 | 100 | 95.5 | 84.8 | 94.6 | 98 | 121 | 93.4 | 106 | 99.8 |
| O=c1[nH]nc(Sc2ncc([N+](=O)[O-])s2)n1-c1ccc2c(c1)OCCO2 + NCC(=O)Nc1ccc(-n2nc(C(F)(F)F)cc2-c2ccc3c(ccc4ccccc43)c2)cc1 [OSU03012] (first compound 1 µM, partner dose 5 µM) | 83.4 | 64.1 | 86 | 110 | 79.5 | 94.4 | 122 | 102 | 147 | 98 |
| C[C@@H]1CCN(C(=O)CC#N)C[C@@H]1N(C)c1ncnc2[nH]ccc12 + Oc1cc(-c2nc(-c3ccccc3)[nH]c2-c2ccncc2)ccc1Cl [L779450] (first compound 5 µM, partner dose 1 µM) | 58.1 | 89.2 | 83.8 | 98 | 87.5 | 85.5 | 102 | 69.2 | 83.8 | 76.4 |
| CC1(C)NC(=O)N(c2ccc([N+](=O)[O-])c(C(F)(F)F)c2)C1=O [nilutamide] + CC(C)(C)c1cnc(CSc2cnc(NC(=O)C3CCNCC3)s2)o1 [SNS-032] (first compound 5 µM, partner dose 0.05 µM) | 85.3 | 121 | 93.9 | 82.4 | 84.3 | 92.5 | 96.5 | 88.2 | 38.1 | 130 |
| C[C@@H]1CCN(C(=O)CC#N)C[C@@H]1N(C)c1ncnc2[nH]ccc12 + CCCCCCCCCCCC1=C(O)C(=O)C=C(O)C1=O [Embelin] (first compound 5 µM, partner dose 6 µM) | 77.2 | 77.2 | 71.5 | 75.8 | 95.2 | 80.5 | 83.6 | 123 | 106 | 67.2 |
| CC1(C)NC(=O)N(c2ccc([N+](=O)[O-])c(C(F)(F)F)c2)C1=O [nilutamide] + Cc1ccc(NC(=O)c2cccc(N(C)C)c2)cc1NC(=O)c1ccc(O)cc1 [ZM336372] (first compound 5 µM, partner dose 10 µM) | 87.7 | 97.1 | 80.2 | 99.5 | 103 | 93.7 | 90.1 | 84.8 | 67 | 94.2 |
